Assay results taken from the supplement of paper PMC4967469.

How the values were obtained:
Assay in all cases: Viability of human cancer cell lines after 72 h of drug (GDSC screen)
[1] = compound: COc1cc(C(=O)NC2CCN(C)CC2)ccc1Nc1ncc2c(n1)N(C1CCCC1)CCC(=O)N2C(C)C [XMD11-85h]; conditions: top dose 10 µM; top dose inferred
Experimental: (§1)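 Human cancer cell lines in 384-well plates, medium with 10% serum, drug for 72 h over a 256-fold dose range (nine 2-fold or five 4-fold steps up to the top dose). Adherent lines were fixed and stained with the nucleic acid dye Syto60, suspension lines read with resazurin; signal relative to control wells, capped at 0 and 100%. One two-parameter sigmoid per drug and line, fitted in a mixed model over all curves with the slope shared within a line.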

[2] = compound: Cc1cc([C@@H](C)Nc2ccccc2C(=O)O)c2nc(N3CCOCC3)cc(=O)n2c1 [AZD6482]
Experimental: as §1

[3] = compound: Cn1ncnc1[C@H]1c2n[nH]c(=O)c3cc(F)cc(c23)N[C@@H]1c1ccc(F)cc1 [BMN-673]; conditions: top dose 10 µM; top dose inferred
Experimental: as §1

[4] = compound: NS(=O)(=O)OC[C@@H]1C[C@@H](n2ccc3c(N[C@H]4CCc5ccccc54)ncnc32)C[C@@H]1O [MLN4924]; conditions: top dose 1 µM; top dose inferred
Experimental: as §1

[5] = top dose 5 µM, screen: GDSC drug entry 1066, top dose inferred
[6] = top dose 5.12 µM, screen: GDSC drug entry 156

Row | Cell Line | AUC [1] | IC50 [1] [µM] | AUC [2, 5] | IC50 [2, 5] [µM] | AUC [2, 6] | IC50 [2, 6] [µM] | AUC [3] | IC50 [3] [µM] | AUC [4] | IC50 [4] [µM]
1 | HGC-27 (stomach, adherent) | 0.956 | > 10 | 0.954 | > 5 | 0.739 | 1.35 | 0.09 | < 0.0391 | 0.623 | 0.129
2 | CHSA0108 (chondrosarcoma, adherent) | 0.856 | > 10 | 0.855 | > 5 | 0.811 | 3.26 | 0.877 | > 10 | 0.786 | 0.506
3 | RPMI-8402 (T-cell lymphoblastic leukaemia, suspension) | 0.852 | 5.88 | 0.94 | > 5 | 0.913 | > 5.12 | 0.585 | 1.02 | 0.862 | 0.642
4 | HCC-78 (lung adenocarcinoma, adherent) | 0.935 | > 10 |  |  | 0.817 | 3.5 | 0.561 | 0.943 | 0.605 | 0.128
5 | MMAC-SF (melanoma, adherent) | 0.97 | > 10 |  |  | 0.885 | > 5.12 | 0.947 | > 10 | 0.879 | > 1
6 | COR-L23 (large cell lung carcinoma, adherent) | 0.986 | > 10 | 0.941 | > 5 | 0.974 | > 5.12 | 0.901 | > 10 | 0.913 | > 1
7 | SK-MEL-2 (melanoma, adherent) | 0.878 | > 10 | 0.987 | > 5 | 0.98 | > 5.12 | 0.94 | > 10 | 0.811 | 0.556
8 | OVCA420 (ovary, adherent) | 0.899 | > 10 | 0.933 | > 5 |  |  | 0.946 | > 10 | 0.95 | > 1
9 | KMH-2 (thyroid, adherent) | 0.963 | > 10 | 0.945 | > 5 | 0.969 | > 5.12 | 0.646 | 1.51 | 0.858 | 0.68
10 | PC-14 (lung adenocarcinoma, adherent) | 0.948 | > 10 | 0.972 | > 5 | 0.986 | > 5.12 | 0.744 | 2.85 | 0.938 | > 1
11 | LP-1 (myeloma, suspension) | 0.993 | > 10 | 0.99 | > 5 | 0.949 | > 5.12 | 0.993 | > 10 | 0.973 | > 1
12 | KYSE-450 (oesophagus, adherent) | 0.968 | > 10 |  |  | 0.925 | > 5.12 | 0.937 | > 10 | 0.74 | 0.289
13 | BT-483 (breast, adherent) | 0.975 | > 10 |  |  | 0.95 | > 5.12 | 0.821 | > 10 | 0.975 | > 1
14 | JJN-3 (haematopoietic neoplasm, suspension) | 0.91 | 9.67 | 0.986 | > 5 | 0.97 | > 5.12 | 0.981 | > 10 | 0.896 | 0.839
15 | COR-L95 (small cell lung carcinoma, adherent) | 0.981 | > 10 | 0.987 | > 5 | 0.985 | > 5.12 | 0.927 | > 10 | 0.947 | > 1
16 | Farage (B-cell lymphoma, suspension) | 0.992 | > 10 | 0.652 | 0.755 | 0.827 | 2.4 | 0.992 | > 10 | 0.928 | > 1
17 | IST-MEL1 (melanoma, adherent) | 0.954 | > 10 | 0.734 | 1.68 | 0.669 | 1.05 | 0.48 | 0.546 | 0.614 | 0.137
18 | GI-ME-N (neuroblastoma, adherent) | 0.78 | 5.77 | 0.918 | > 5 | 0.881 | > 5.12 | 0.591 | 1.21 | 0.728 | 0.358
19 | MKN7 (stomach, adherent) | 0.981 | > 10 | 0.867 | > 5 |  |  | 0.931 | > 10 | 0.971 | > 1
20 | NCI-SNU-16 (stomach, suspension) | 0.932 | > 10 | 0.98 | > 5 | 0.991 | > 5.12 | 0.978 | > 10 | 0.935 | > 1
21 | OV-17R (ovary, adherent) | 0.939 | > 10 | 0.941 | > 5 |  |  | 0.784 | 6.18 | 0.974 | > 1
22 | NB10 (neuroblastoma, adherent) | 0.943 | > 10 | 0.983 | > 5 | 0.972 | > 5.12 | 0.161 | 0.059 | 0.672 | 0.186
23 | TGW (neuroblastoma, adherent) | 0.991 | > 10 | 0.962 | > 5 | 0.989 | > 5.12 | 0.971 | > 10 | 0.967 | > 1
24 | H290 (mesothelioma, adherent) | 0.945 | > 10 | 0.958 | > 5 | 0.983 | > 5.12 | 0.644 | 1.5 | 0.586 | 0.105
25 | HSC-39 (stomach, suspension) | 0.983 | > 10 | 0.726 | 1.23 | 0.991 | > 5.12 | 0.969 | > 10 | 0.877 | 0.764
26 | HUTU-80 (digestive system, adherent) | 0.991 | > 10 | 0.956 | > 5 | 0.955 | > 5.12 | 0.299 | 0.191 | 0.662 | 0.161
27 | NCI-H446 (small cell lung carcinoma, semi-adherent) | 0.855 | 8.89 | 0.862 | 4.78 | 0.945 | > 5.12 | 0.97 | > 10 | 0.984 | > 1

Row | Cell Line | AUC [1] | IC50 [1] [µM] | AUC [2, 5] | IC50 [2, 5] [µM] | AUC [2, 6] | IC50 [2, 6] [µM] | AUC [3] | IC50 [3] [µM] | AUC [4] | IC50 [4] [µM]
28 | A549 (lung adenocarcinoma, adherent) | 0.947 | > 10 | 0.916 | > 5 |  |  | 0.747 | 3.55 | 0.815 | 0.637
29 | EFM-192A (breast, adherent) | 0.977 | > 10 | 0.958 | > 5 | 0.879 | > 5.12 | 0.969 | > 10 | 0.946 | > 1
30 | HEC-1 (endometrium, adherent) | 0.976 | > 10 | 0.937 | > 5 | 0.9 | > 5.12 | 0.8 | 4.64 | 0.877 | 0.938
31 | ESO26 (oesophagus, adherent) | 0.865 | 7.98 | 0.984 | > 5 |  |  | 0.881 | 9.39 | 0.982 | > 1
32 | JHU-029 (head and neck, adherent) | 0.934 | > 10 | 0.975 | > 5 |  |  | 0.726 | 3.23 | 0.792 | 0.573
33 | Hs940-T (melanoma, adherent) | 0.981 | > 10 | 0.964 | > 5 | 0.779 | 2.57 | 0.877 | > 10 | 0.87 | > 1
34 | FTC-133 (thyroid, adherent) | 0.972 | > 10 | 0.896 | > 5 | 0.956 | > 5.12 | 0.808 | 5.81 | 0.923 | > 1
35 | MOG-G-UVW (glioma, adherent) | 0.962 | > 10 | 0.922 | > 5 | 0.943 | > 5.12 | 0.468 | 0.514 | 0.613 | 0.127
36 | BL-41 (Burkitt lymphoma, suspension) | 0.987 | > 10 | 0.971 | > 5 | 0.952 | > 5.12 | 0.487 | 0.58 | 0.803 | 0.364
37 | MFM-223 (breast, adherent) | 0.987 | > 10 | 0.86 | 4.11 | 0.989 | > 5.12 | 0.98 | > 10 | 0.812 | 0.53
38 | AsPC-1 (pancreas, adherent) | 0.883 | > 10 | 0.892 | > 5 |  |  | 0.901 | > 10 | 0.94 | > 1
39 | WM-115 (melanoma, adherent) | 0.97 | > 10 | 0.865 | > 5 | 0.874 | > 5.12 | 0.816 | 7.21 | 0.886 | > 1
40 | SNU-C1 (large intestine, suspension) | 0.901 | > 10 | 0.902 | > 5 | 0.942 | > 5.12 | 0.961 | > 10 | 0.97 | > 1
41 | KCL-22 (chronic myeloid leukaemia, suspension) | 0.969 | > 10 | 0.99 | > 5 | 0.991 | > 5.12 | 0.952 | > 10 | 0.822 | 0.466
42 | D-263MG (glioma, adherent) | 0.934 | > 10 | 0.74 | 1.78 | 0.899 | > 5.12 | 0.829 | 8.08 | 0.824 | 0.77
43 | GR-ST (lymphoblastic leukaemia, suspension) | 0.872 | > 10 | 0.841 | 4.61 | 0.902 | > 5.12 | 0.367 | 0.248 | 0.861 | > 1
44 | C32 (melanoma, adherent) | 0.962 | > 10 | 0.904 | > 5 | 0.987 | > 5.12 | 0.872 | > 10 | 0.887 | > 1
45 | COLO-684 (endometrium, suspension) | 0.947 | > 10 | 0.782 | 2.37 | 0.745 | 1.78 | 0.962 | > 10 | 0.922 | > 1
46 | LS-513 (large intestine, adherent) | 0.986 | > 10 | 0.977 | > 5 | 0.985 | > 5.12 | 0.975 | > 10 | 0.939 | > 1
47 | RXF393 (kidney, adherent) | 0.975 | > 10 | 0.711 | 1.57 | 0.238 | 0.0404 | 0.706 | 3.03 | 0.892 | > 1
48 | OCI-AML5 (acute myeloid leukaemia, suspension) | 0.988 | > 10 | 0.94 | > 5 | 0.898 | > 5.12 | 0.91 | > 10 | 0.807 | 0.46
49 | NCI-H460 (large cell lung carcinoma, adherent) | 0.989 | > 10 | 0.903 | > 5 | 0.974 | > 5.12 | 0.263 | 0.142 | 0.905 | > 1
50 | VMRC-LCD (lung adenocarcinoma, adherent) | 0.971 | > 10 | 0.993 | > 5 |  |  | 0.917 | > 10 | 0.919 | > 1
51 | NCI-H1944 (lung adenocarcinoma, adherent) | 0.944 | > 10 | 0.885 | > 5 | 0.944 | > 5.12 | 0.802 | 5.3 | 0.923 | > 1
52 | TT (thyroid, adherent) | 0.98 | > 10 | 0.97 | > 5 | 0.974 | > 5.12 | 0.919 | > 10 | 0.934 | > 1
53 | NCI-H1915 (large cell lung carcinoma, adherent) | 0.986 | > 10 | 0.988 | > 5 | 0.965 | > 5.12 | 0.797 | 4.8 | 0.946 | > 1

A lower IC50 marks a more sensitive line; fits outside the tested doses are given as limits. AUC is the area under the same curve over the 256-fold range up to the top dose, as a fraction; it is 1 without any effect and falls as sensitivity rises. Any top dose called inferred is not printed in the source and was worked back from the curve model. For some assays here: An entry number marks a drug with two screens in the source, which often give different values.
